Measured values taken from paper PMC12040169 (PLOS Biology, 2025).
This is one part of the list.

Each molecule was assayed on T1, C. trachomatis L2/434/Bu expressing GFP (CTL2-GFP). Details: total inclusion area; 28.5 h, 10 µM; inhibitor.
T1 construct: L2/434/Bu GFP intracellular growth in HeLa cells
Set-up: species or system HeLa; C. trachomatis total inclusion area by high-content imaging, normalised to DMSO
Method in brief: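 Imaging read-out: GFP inclusions and Hoechst nuclei captured by high-content imaging after fixation. Inclusion area/number = chlamydial growth; nuclei count = host cell viability. MIC calculated per earlier method.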
`N#CCCCN1CCC2(CC1)CN(CC(N)=O)c1ccccc12` [CBK137024] was tested, and the “% of control remaining” value was 83.6123. For `COc1ccccc1Nc1nc(N)nc(CSc2nccn2C)n1` [CBK266710], the “% of control remaining” value was 108.802. For `CC(=O)Nc1c(O)nc(SCC(=O)Nc2ccc(C(C)=O)cc2)[nH]c1=O` [CBK268527], the “% of control remaining” value was 99.3328. With `COc1ccc(C(C)C)cc1-c1cncc(NC(C)CCCC(C)(C)O)n1` (stereo not drawn) [CBK065521] the “% of control remaining” value was 92.1483. For `CC(=O)NCCNC(=O)c1cc(Br)cnc1NCCOc1ccccc1` [CBK076232], the “% of control remaining” value was 67.1113. For `Fc1ccc(C2CCCN(CCCOc3cccc(F)c3)C2)cc1` (stereo not drawn) [CBK016228B], the “% of control remaining” value was 9.534. With `O=C(CSc1nc2ccccc2[nH]1)c1ccccc1` [CBK261298] the “% of control remaining” value was 101.298. `Cn1nc(NC(=O)Cc2ccsc2)c2c(N3CCOCC3)cccc21` [CBK307023] was tested, and the “% of control remaining” value was 46.0449. In the case of `O=C(N/N=C\c1ccccc1O)c1nc([N+](=O)[O-])n[nH]1` [CBK261475], the “% of control remaining” value is reported as 95.2328. With `Cc1ccc(S(=O)(=O)NCC(=O)N2CCOCC2)cc1[N+](=O)[O-]` [CBK050597] the “% of control remaining” value was 99.4828. In the case of `Cc1cc(-c2cn(C)nc2C2CCCCN2C(=O)C2CCC2)on1` (stereo not drawn) [CBK283403], the “% of control remaining” value is reported as 102.649. In the case of `CCn1cc(CN2C3CCC2CC(O)(c2ccccc2F)C3)cn1` (stereo not drawn) [CBK282662], the “% of control remaining” value is reported as 116.774. In the case of `Fc1ccc(Oc2nccnc2N2CCN(Cc3ccc(Cl)cc3)CC2)cc1` [CBK083010T], the “% of control remaining” value is reported as 125.178. For `CCC(=O)N1CC[C@H]2NC(=O)c3ccccc3OCC/C=C/C[C@H]2C1` [CBK291999], the “% of control remaining” value was 125.844. With `COc1cc(/C=C(/C#N)c2ccc(C(=O)O)cc2)ccc1OCc1cccc([N+](=O)[O-])c1` [CBK269057] the “% of control remaining” value was 87.6414. `O=C(CN1CCC(NC(=O)c2ccccc2)CC1)Nc1ccccc1` [CBK074716] was tested, and the “% of control remaining” value was 112.746. With `CCCc1cc(C(=O)NC(C)(C)CN2CCCC(C)C2)[nH]n1` (stereo not drawn) [CBK282467] the “% of control remaining” value was 92.8189. `COc1ccccc1/C=C/c1nn2c(C(C)C)nnc2s1` [CBK269501] was tested, and the “% of control remaining” value was 107.913. In the case of `O=C1c2cccc3cccc(c23)C(=O)N1CCN1CCN(CC(O)COc2ccc(Cl)cc2Cl)CC1` (stereo not drawn) [CBK264881], the “% of control remaining” value is reported as 107.22. `Cc1nn2c(C3CCCNC3)ccnc2c1-c1ccc(F)cc1` (stereo not drawn) [CBK284139] was tested, and the “% of control remaining” value was 75.9891. With `CN1CCN(C(=O)c2ccsc2NS(=O)(=O)Cc2ccccc2)CC1` [CBK042266] the “% of control remaining” value was 83.6013. For `O=C(CSc1n[nH]c(=O)[nH]c1=O)N/N=C/c1cccs1` [CBK263508], the “% of control remaining” value was 86.8156. `O=C(CN1CCN(S(=O)(=O)N2CCCCC2)CC1)Nc1ccc(Br)cc1` [CBK269515] was tested, and the “% of control remaining” value was 89.2403. `CN(Cc1ccsc1)C(=O)c1cccc(S(=O)(=O)NCC2CCCO2)c1` (stereo not drawn) [CBK304232] was tested, and the “% of control remaining” value was 43.3852. For `CCCC(=O)N1CCC(c2nnc(-c3ccsc3)o2)CC1` [CBK283377], the “% of control remaining” value was 97.1983. In the case of `COc1ccc(C(=O)N[C@H]2C[C@H]3C(=O)NC[C@@H](CCC(=O)N4CCN(C)CC4)N3C2)cc1` [CBK289016], the “% of control remaining” value is reported as 121.49. With `Cc1ccc(C(=O)N2CCN(S(=O)(=O)c3sc(C(=O)O)c(C)c3C(=O)O)CC2)cc1` [CBK297120] the “% of control remaining” value was 48.9487. With `CC1CCCCN1Cc1nc2c(c(=O)n(C)c(=O)n2C)n1Cc1ccccc1` (stereo not drawn) [CBK269203] the “% of control remaining” value was 56.2248. `CC(C)(C)c1cc(NC(=O)CSc2ccc(S(=O)(=O)N3CCCC3)cn2)n(-c2ccccc2)n1` [CBK297099] was tested, and the “% of control remaining” value was 90.6726. `Cc1ccccc1Cc1cccc(C2CCN(CC(=O)Nc3nccs3)CC2)n1` [CBK286089] was tested, and the “% of control remaining” value was 81.3615. With `Cc1oc(-c2ccccc2)cc1C(=O)Nc1ccc(N2CCNCC2)nc1` [CBK034127T] the “% of control remaining” value was 63.734. `Cc1ccc(Cn2nc(C)c(C(=O)OCc3cc(=O)n4ccccc4n3)c2Cl)cc1` [CBK297550] was tested, and the “% of control remaining” value was 54.9111. For `Cc1cc(C)n(-c2cc(N3CCN(S(=O)(=O)Cc4ccccc4)CC3)ccc2[N+](=O)[O-])n1` [CBK264407], the “% of control remaining” value was 94.0444. With `CCOc1ccc(S(=O)(=O)N2CCCN(CCCC#N)CC2)c2cccnc12` [CBK062935] the “% of control remaining” value was 91.3711. For `Cc1cc(NC(=O)C(C)N(C)CCOc2ccccc2Cl)no1` (stereo not drawn) [CBK304466], the “% of control remaining” value was 64.2174. With `COc1cccc(CN2CCN(C(=O)C3(C)CC3(Cl)Cl)CC2)c1` (stereo not drawn) [CBK268121] the “% of control remaining” value was 63.2695. In the case of `CSc1ccccc1NC(=O)c1cccn(Cc2ccc(C)cc2)c1=O` [CBK294426], the “% of control remaining” value is reported as 103.47. In the case of `O=C(CSC1=NC(=O)C(Cc2ccccc2)C(=O)N1)Nc1ncccn1` (stereo not drawn) [CBK263906], the “% of control remaining” value is reported as 73.8269. For `COc1ccc(I)cc1S(=O)(=O)NCc1ccccn1` [CBK264019], the “% of control remaining” value was 82.4604. With `c1ccc(-c2nc3ccc(Oc4ccc5nc(-c6ccccn6)c(-c6ccccn6)nc5c4)cc3nc2-c2ccccn2)nc1` [CBK261964] the “% of control remaining” value was 93.8023. With `CCn1cncc1CN1CCCC(c2cc3cccnc3[nH]2)C1` (stereo not drawn) [CBK284993] the “% of control remaining” value was 103.844. For `CN(C)CCCC(O)(c1ccccc1)c1ccccc1` [CBK012599], the “% of control remaining” value was 67.5219. `CC(NC(=O)N(CCCN)Cc1c[nH]c(-c2ccccc2)n1)c1cccc2ccccc12` (stereo not drawn) [CBK034672C] was tested, and the “% of control remaining” value was 71.5124. In the case of `CCC(C)(C)c1ccc(S(=O)(=O)N(C)CCC#N)cc1` [CBK043395], the “% of control remaining” value is reported as 106.454. `O=C(NCCN1CCOCC1)c1ccc(Nc2cncc(-c3ccc(O)cc3)n2)cc1` [CBK115692] was tested, and the “% of control remaining” value was 92.499. `COc1ncnc(C)c1-c1cc(C)c(OC)c(C)c1` [CBK306852] was tested, and the “% of control remaining” value was 112.424. With `COc1cc(C2=NS(=O)(=O)NC3=C2CCCC3)cc(OC)c1OC` [CBK010423] the “% of control remaining” value was 58.1338. In the case of `Cc1ccc(S(=O)(=O)Nc2cccc(NC(=O)c3ccco3)c2)cc1C(=O)O` [CBK296638], the “% of control remaining” value is reported as 110.888. `FC(F)Oc1ccc(-c2ccnc(S)n2)cc1` [CBK288385] was tested, and the “% of control remaining” value was 57.0396. For `Cc1nc(C2CC(=O)N(Cc3ccccn3)C2)n(-c2ccccc2F)n1` (stereo not drawn) [CBK306895], the “% of control remaining” value was 90.1575. In the case of `O=C(Nc1nc2c(s1)CCCCC2)C1CCN(S(=O)(=O)c2ccc(F)cc2)C1` (stereo not drawn) [CBK285708], the “% of control remaining” value is reported as 94.6352. In the case of `CC(=O)c1ccccc1NC(=O)c1cc2ccc(F)cc2nc1C` [CBK297929], the “% of control remaining” value is reported as 65.3756. With `O=[N+]([O-])c1ccc(CN2CCC(Oc3nccnc3OCc3cccnc3)CC2)cc1` [CBK083162T] the “% of control remaining” value was 69.6253. In the case of `Cc1ccccc1-c1cc(C(=O)NCCCn2cc(Br)cn2)c2ccccc2n1` [CBK267758], the “% of control remaining” value is reported as 84.8085. `Cn1cc(C(=O)Nc2c(F)cc(F)cc2OC2CCNCC2)c2ccccc21` [CBK050328T] was tested, and the “% of control remaining” value was 80.1574. For `Oc1ccc(-n2ncc(-c3cccc(C(F)(F)F)c3)n2)cc1` [CBK112677], the “% of control remaining” value was 57.8956. `CC1(C)CCCC2=C1CC(C(=O)O)C(C(=O)O)C2` (stereo not drawn) [CBK272329] was tested, and the “% of control remaining” value was 105.472. In the case of `COc1ccc2c(C)c(CCC(=O)N(C)CC(=O)O)c(=O)oc2c1` [CBK286731], the “% of control remaining” value is reported as 41.273. For `CC(C)(C)CNc1ccc(S(=O)(=O)N2CCOC2=O)cc1` [CBK028347], the “% of control remaining” value was 86.4532. In the case of `CCc1nn(CCN2CCCC2)c(=O)c2cc3sccc3n12` [CBK284075], the “% of control remaining” value is reported as 91.7311. For `O=C(CCN1C(=O)c2ccccc2C1=O)N(CCO)Cc1ccccc1` [CBK265565], the “% of control remaining” value was 43.3892. `CCCc1cc(C2CCCCCN2C(=O)c2c(C)noc2C)no1` (stereo not drawn) [CBK284919] was tested, and the “% of control remaining” value was 102.571. For `CC1=C[C@@H](CO)[C@H](C(C)C)C[C@H]1CC(=O)NCc1cccnc1` [CBK289218], the “% of control remaining” value was 86.9069. For `CCC(C)NC(=O)C1(Cc2cccc(-c3ccc(OC)cc3)c2)CCOCC1` (stereo not drawn) [CBK286513], the “% of control remaining” value was 96.8386. In the case of `COc1ccc(C2CCN(CC(=O)NC3CCCC3)CC2)cc1` [CBK283565], the “% of control remaining” value is reported as 65.0975. With `COc1cc(S(=O)(=O)N2CCCN(S(=O)(=O)c3cc(OC)c(Cl)cc3OC)CC2)c(OC)cc1Cl` [CBK266489] the “% of control remaining” value was 124.832. In the case of `CS(=O)(=O)N1CC2(CCN(Cc3cccc4cccnc34)CC2)c2ccccc21` [CBK136955], the “% of control remaining” value is reported as 94.5557. For `COCC(C)NC(=O)CCn1ccc2ccncc21` (stereo not drawn) [CBK285172], the “% of control remaining” value was 101.07. For `O=C(Nc1sccc1C(=O)N1CCOCC1)C(Sc1ccccc1)c1ccccc1` (stereo not drawn) [CBK268165], the “% of control remaining” value was 84.2252. `Cc1nc(C)n(CC2CCCN(Cc3cn4ccccc4n3)C2)n1` (stereo not drawn) [CBK304028] was tested, and the “% of control remaining” value was 63.671. For `Cn1nnc2cc(C(=O)NCCN3CCCCC3CO)ccc21` (stereo not drawn) [CBK307268], the “% of control remaining” value was 95.8986. With `CNC(=O)c1cnn2c(C)c(Cc3cccnc3)c(C)nc12` [CBK162165] the “% of control remaining” value was 98.8553. For `COC(=O)[C@H](NC(=O)C1CCN(C(=O)OCc2ccccc2)CC1)c1ccccc1` [CBK081466], the “% of control remaining” value was 86.3148. For `COc1cc(CN2CCN(Cc3cccc([N+](=O)[O-])c3)CC2)c([N+](=O)[O-])cc1OC` [CBK263111], the “% of control remaining” value was 103.971. For `O=C(NCCCc1nc2ccccc2[nH]1)c1ccccc1` [CBK268429], the “% of control remaining” value was 118.258. `COc1ccccc1NC(=O)Cn1cnc2sc(C(=O)NC(C)C)c(C)c2c1=O` [CBK071847] was tested, and the “% of control remaining” value was 83.4051. With `Cc1cc(C)cc(C(=O)NC(=S)Nc2sc(C)c(C)c2C#N)c1` [CBK267089] the “% of control remaining” value was 119.434. For `CN(C)c1ccc(C=C2CCCC3C2=NN(C(=O)CCC(=O)O)C3c2ccc(N(C)C)cc2)cc1` (stereo not drawn) [CBK296065], the “% of control remaining” value was 117.27.
